Test results published in the supplement of paper PMC11417369.
Some of the results follow.

Tested on: PfHDP1 homeodomain (GST-tagged)
Assay: gcPBM binding intensity (ln(normalized median fluorescence intensity)); higher = stronger DNA binding
Procedure, shortened: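 GST-tagged P. falciparum DNA-binding domains produced in E. coli were incubated for 1 h on an Agilent 4 × 180k array of primer-extended double-stranded 36-bp intergenic genomic probes with negative controls. Binding intensity is the highest Masliner-normalised natural-log median intensity across replicate spots of either probe orientation, with bound protein detected by Alexa488 anti-GST antibody at 488 nm.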

| Sequence | gcPBM binding intensity (ln) |
| --- | --- |
| ACATATAAATGATATGTACACACATTTATATATATA [CACACA_site9152] | 7.4 |
| ATTTCTCTATCGTAATGTACAAAAAAAAGGAAAAAA [XGTACX_site1323] | 6.24 |
| TTTTTAACGTATAAGGTGCACTGTATATGGTACTCA | 9.91 |
| TCTTCTTTAAAAGAGGTGCACTATATAATGTGATTA [GTGCAC_site9431] | 9 |
| TAATTATACTTATTTTGTACGCAATATTTAAAATAA [XGTACX_site8516] | 6.41 |
| ATGTTGAGTATATATACACACATACAGATATATATA [CACACA_site4967] | 6.95 |
| TCCACACAATTTATAACATGCAAAAAGGCAATAATA [TGCATGCA_site773] | 6.54 |
| TAGGTATATAAATAATGTACATATAAACTATATAGA [XGTACX_site2597] | 6.95 |
| ATTATTTTATTTATTGGTACGTAATTGTAGATTTCT [XGTACX_site3697] | 6.68 |
| TGGAGATAAAATAAAACACACACATATATATATATA [CACACA_site8683] | 9.16 |
| ATACATTCTTATTACTGTACAGGGTTAATTATTTGT [XGTACX_site948] | 6.81 |
| GCAAAAACAAACGTCACACATACAAAGGCCGTGTAA [CACACA_site6043] | 6.14 |
| AATTAGACATAATATACACACATATATTATATATAT [CACACA_site2691] | 6.91 |
| TTCAAAAGATATATCGTGCACATATATATGATGAAA | 10.2 |
| ATTTTTTTGGAATTCACACACAAAAAAAAAAATAAA [CACACA_site2081] | 6.5 |
| AGCAGTCAGCAGGACAGTACACAGTAGCCAGTAACT [XGTACX_site1999] | 5.7 |
| CAAAATATATTGAATTGTACATAAAAATAAAAATTA [XGTACX_site4193] | 6.5 |
| TTTATTTTATCATTTGCACACGCACGCCCACATAAA [CACACA_site353] | 10.6 |
| TTCGCCCTAAATAGAGTGCATTATATATATTAATAT | 8.71 |

| Sequence | gcPBM binding intensity (ln) |
| --- | --- |
| TTCCAACCAATACAAACATGCATTTGAAAAAATGTA [TGCATGCA_site119] | 6.21 |
| TTTTTAGGAAAGGCGGCACACATTTATATATTTATT [CACACA_site3672] | 6.15 |
| ATAAAATAAATATAACCACACACGAAAGAGAGAGAA [CACACA_site9075] | 7.1 |
| TTGTATTACATAAATGTTCTTTATTATTTGATAAAA [CACACA_negctrl_site903] | 6.23 |
| TATATAATATATTAATGTACTTAAAATATATTCTAT [XGTACX_site1235] | 6.16 |
| AATAAAATATACTATTGTACATATGGAACTACTTGA [XGTACX_site8928] | 6.24 |
| TTGTTTTTAGTTTATACACACCATATTAAAATAATG [CACACA_site5675] | 7.02 |
| ATTTATTATATATAGTGTACGTTCTTAATTATAATT [XGTACX_site7480] | 6.55 |
| TGTATAAACCCACGTACACACACTAAGTATATCCAA [CACACA_site1605] | 6.84 |
| TTTTTTAAATATTAAAAATGGGATCTTATAACATAT [GTGCAC_negctrl_site666] | 6.38 |
| TAAAATATATTGCCAGTGCATAATATATGTAATTAT | 9.13 |
| TTATTTTTAACGTACGCACACATATAAATATATTTA [CACACA_site1976] | 7.4 |
| AACTAATAAAAAAAAAAAACATTAAACAGGACAAAT [XGTACX_negctrl_site287] | 6.68 |
| TAAACAAATAAATAAACACACAATATAGGTATATAT [CACACA_site7739] | 6.49 |
| TATATATATTTCCAGTGTACTTATTTTTTAATCAAT [XGTACX_site8220] | 6.7 |
| CACATTTAGAAATAGTTTTATTTTGTATATTCTATT [CACACA_negctrl_site1382] | 6.01 |
| TTTTGTATATATCACATTAAAAGAAAAAAATATATG [GTGCAC_negctrl_site120] | 6.39 |
| GTATGTGTATGTGTATGTACATATGTATGTATAAAA [XGTACX_site8191] | 8.13 |
| TATACATTTATGTACACACACATATCTGTATATTTA [CACACA_site5617] | 6.39 |

| Sequence | gcPBM binding intensity (ln) |
| --- | --- |
| GTGTAGTTAAAAAAAAGTACAGATTTTTTTTTTTTT [XGTACX_site849] | 6.29 |
| ATAAGAACGTCTATGTGTACGCAGCAAAACTGAGTT [XGTACX_site6385] | 6 |
| AAAAAAAAAAAAACAAGTACAAAGGATAGAAAAAAA [XGTACX_site4133] | 6.23 |
| ATAGAATATTGATATTGTACGTTATCTTAAAACAAT [XGTACX_site1702] | 6.27 |
| AACCAATTATATTTACGTACGTACGGTTTTTTATAT [XGTACX_site1291] | 6.8 |
| CAAAAAAAAAAAAAAAATAAATAAAGGAAATAAAAA [CACACA_negctrl_site20] | 6 |
| ACATATAAAATGTATACACACAAATATTACATATAT [CACACA_site1472] | 6.52 |
| AATAAAAAATATAACACAAATATGTATATATATATA [TGCATGCA_negctrl_site245] | 8.92 |
| TTCTCAAAGAAGAAAAAGTTTTTTTAATTTTTCTTT [XGTACX_negctrl_site543] | 5.75 |
| AATATATTTTTTTTTTGTACATATTGTAAAATAATA [XGTACX_site6805] | 6.38 |
| ATATATTAATATACTCGTACATATTCTTATTGTGTA [XGTACX_site3728] | 6.79 |
| TATAAAGATATAAATGCACACGTATTAAAAAAAAAA [CACACA_site8223] | 8.22 |
| AGGAGGATAGTTCACAGTACCCAGTAACTCTACGGA [XGTACX_site1997] | 6.06 |
| GCATATATGGATATATAGGTATATATAAATGCAATA [GTGCAC_negctrl_site24] | 6.46 |
| CCTCTCATTTTATATAGTACATATTTCAAAAAAAAA [XGTACX_site488] | 6.65 |
| GCATATTTTCCCTGTGAATAAAGTTTTTTTTTTTAT [XGTACX_negctrl_site87] | 6.29 |
| ATATAAAAAAAAAATTGTACAAAAATATATACATAT [XGTACX_site469] | 6.54 |
| AAAATACACGATAGTTGTACATTAAATGTATACAAT [XGTACX_site360] | 6.49 |
| CATCCGTTGATATATGCATGCATATTGTTATTACCA [TGCATGCA_site868] | 7.15 |
